From the RNAGym collection of RNA variant scans (doi:10.7554/elife.90254) come the findings set out here.

The source gives no read counts; variants with many changes may rest on few reads.

Sequences and labels used below:
B1: LINE1-mini (parent)
chain: GGCAGAGCUCAACACAGCGUGGCAAAGUGGCUGUGGCUAGACUGCC

Variants of B1 are the subject of this data set. Description: self-cleavage, relative activity (ratio to wild type); higher = more cleavage; in vitro, sequencing; the parent is a self-cleaving ribozyme.
Consider G1U G27C U32C, for which the self-cleavage amounted to 0.04. Consider C3A C13U A16U G30U C31G, for which the self-cleavage was 0.62.

C3U C23G G30A U32A G33A G35U: the self-cleavage was determined as 0.05. As to G2U G5A G21A U43A, the self-cleavage worked out at 0.18. The value for C10A A25U G36U C42A was 0.01; that for G7A C15G G44C was 0.02. Regarding G7A C13U G19A C42U, the self-cleavage amounted to 0.86. As for C8G C31A G35U, the self-cleavage amounted to 0.02. For the variant C10G U32G A39C U43C, the self-cleavage was 0. C3A G5A U9G G17A: the self-cleavage stood at 0.37. The value for C8A A14G G19U G27U was 0.27; that for C10A C15A G29U was 0.05; that for U20C A25C G30U was 0.37.

With G1A C23G C31A G33U G35U, the self-cleavage was 0.1. With C13U G30U C37U the figure was 0.01; with A12U G21A C37A, 0.01; with G35A G36U U43G, 0.08. Turning to G1U U28G C31U, the self-cleavage was found to be 0.21. With G5A A12G A41C the figure was 0.06; with A24U G27A G44A, 1.16; with G21A G29U C42U, 1.05.

Consider C31A U43C C45G, for which the self-cleavage was determined as 0. The value for A6U C8A A14G G30U was 0.02. With A6G C10U A16C G33U, the self-cleavage amounted to 0.03. For G1U G22U A26C U34A, the self-cleavage was 0.03. As for G1A C3A C42U C46A, the self-cleavage amounted to 0.71.

As to C18G G30U C37U, the self-cleavage turned out to be 0.07. With G22C G29C U38A the figure was 0.14. Take G7U U20A U38A: the self-cleavage amounted to 0.03.

As for A6U C15A G27U G36U C42G, the self-cleavage was 0.04. As for A6U G7U U9A A12U U34A, the self-cleavage came out at 0.23. The value for U9A G19C A24G C31A was 0; that for C8G A14U C31U was 0.01; that for C3G A16C G21A C23G U38A A39G was 0.34. For A6G C18U G19C, the self-cleavage came to 0.05. With G7C A16C G17C, the self-cleavage was 0.04. Take U9C A14G G30C: the self-cleavage came to 0.01.

For U9C U43G C46U, the self-cleavage amounted to 0.02.

On to C18U G19C U43A, for which the self-cleavage turned out to be 0.06. With U20A G22A G27A the figure was 1.69; with C3A C18G G19A A24U G29C, 0.14; with G5A C8U A12C, 0.05. The value for G22C C23A G30C C45G was 1.47; that for G19A U34G U43A was 0.02; that for G2U G7U A11G G36C was 0. The value for G7U U9G G17A was 0.21; that for U9G A12U C13U G19U G27U was 0.06.

Consider G5U C13U G35U, for which the self-cleavage came out at 0.02. With C3U C13U A26U U32A C42U the figure was 0.21. Regarding C10U G19U C23U G36A, the self-cleavage stood at 0.04.

Consider G7A C8A A12U, for which the self-cleavage was 0.32. For C3U A24U G44C, the self-cleavage turned out to be 0.07. In the case of C3A G17U C31U, the self-cleavage amounted to 0.09. The value for C3U G5A C18G C37A was 0.05; that for G2U C10A G19A A25U A41G was 0; that for A11G C13A C18G C23U G29A A41C was 0.03. With C18G U20G U38G, the self-cleavage came to 0.

As for G2U C8A C10A G19C, the self-cleavage was determined as 0. Regarding G2U C13U G36A, the self-cleavage came to 0.02. The value for A6U A14C C31U G33U was 0.01; that for A12U A16C G27A G44U was 0.02; that for C15U G17U G19U U20A was 0.26. Turning to C3G G19A U38C C45G, the self-cleavage was found to be 0.92. In the case of A4C C18A G19A G44C, the self-cleavage is 0.02. With A25G G30A G40U C45A the figure was 0.03; with G19U U28A G36A A39G, 0.01; with C10U C15A G19A G22A C23U, 0.04. Take A4U A25G C37A U38C: the self-cleavage stood at 0.03.

Take A14C A16U A25U A39C: the self-cleavage came to 0.02. With G2A G19C A41C the figure was 0.07; with G1U A11C U28A G36C, 0.01; with U32G C42G U43G, 0.12. For the variant G19A A25C G29C G36U, the self-cleavage was 0.03. The value for C18U G35U G36U U38A was 0.07; that for A25U G27U A39C was 0.25; that for C13U A16U C23A G30A C37G was 0.13. With A4C G21A C31G C45A the figure was 0.15; with G17U G21A A25G G30A U38A, 0.15. The value for C8A A26G G29C G30U A41C was 0.02; that for A11G C18A G19U C45U was 0.

Consider G1A C15U U32A G40A, for which the self-cleavage came out at 0.04. The value for U20C U28A G29A was 0.29; that for U9C A14C G29C A41U C45U was 0.01. With C10U A14C G30C C42U, the self-cleavage worked out at 0.05.

As for A12G G22U A41G, the self-cleavage is 0.04. The value for G7A C13U A24C G44A C45G was 0.07; that for A12U C31A G40A was 0.05. Consider C3A C13A U34A, for which the self-cleavage stood at 0.11. With G27C G36C U43C the figure was 0.2; with G2A G5A A24U G36C, 1.89; with A6U U20G A26U C31U G35C, 0.09. With G5C C18U C31A A39C C42A the figure was 0.03; with U28G U38G C46A, 0.02.

For G2C A11G U38G C42A, the self-cleavage was 0. For C3U C18G C46A, the self-cleavage amounted to 0.12. As to C10A G19U A24U, the self-cleavage came to 0.03.

As to A4U G22C G35C, the self-cleavage was 0.08.

In the case of G19U U32A G35C A41U C42U, the self-cleavage worked out at 0.01. Regarding C3A G22C G36C G44C, the self-cleavage was 0.03. On to C8U G27A G30A, for which the self-cleavage came out at 0.09. As for G5A U9A G22A A25G, the self-cleavage worked out at 0.14. C18G U32C A39G: the self-cleavage worked out at 0.15.

Turning to A4C U9A G44U, the self-cleavage was 0.07.

Regarding A14G C15G G17A, the self-cleavage stood at 0.05. The value for C3G A11G G17U G40A was 0.03; that for G1C G21C G30C G33U was 0.01.

Turning to A6G C8A C13A G29U, the self-cleavage came out at 0.16. With G2C U28A U32G A39U C42U the figure was 0.03. With G7C G21A A39C the figure was 0.2; with G2U A26C G27U, 0.03; with G1C G7C C18A G33U, 0.03. The value for C23A G33A G40C C42A C46U was 0.03; that for A6C C18U C23U C46U was 0.41.

For the variant A4C G27A G30U G40U, the self-cleavage came out at 0.41. For U38A C45G C46U, the self-cleavage was found to be 0.08.

For the variant C18U G30U C37G G40U, the self-cleavage was 0.05. For the variant G17C G27U G30U U38G, the self-cleavage was found to be 0.02. Turning to A4G A26U U32C U38C U43A, the self-cleavage was found to be 0.03. With G17C C23A G27A the figure was 1.42.

On to U28A C37G U38C, for which the self-cleavage came to 0. With A4C A12U G29U A39C the figure was 0.03; with G2U A6U A11C A14C G17U C31A, 0.02. For the variant G33C C37A U38G, the self-cleavage amounted to 0.01.

For the variant C3A A16G G36A, the self-cleavage is 0.21.

With G1A A14C G19U U43C, the self-cleavage was found to be 0.04.

Regarding A6C C15U A25C U34G, the self-cleavage came to 0.01. On to G21U A26C U34A, for which the self-cleavage was 0.17. Regarding C18G G29U G40C, the self-cleavage worked out at 0.01.

With C23U G36U A41U G44C, the self-cleavage came to 0.02.

For C13G C23A G29U G36U, the self-cleavage is 0.18.

As to U28A C42A C46U, the self-cleavage is 0.21. With C8A G33U A39G, the self-cleavage turned out to be 0.1. A25C A26U G44U: the self-cleavage stood at 0.08. With A4C G35U U43A the figure was 0.11; with G30C A39U G44C, 0.02.

Regarding A6C G19C G27A, the self-cleavage was found to be 0.21. The value for G17A G21U A26C was 0.18; that for A16C G21C C23G G35U C42G was 0.01. With A11U G19C G29C A41G the figure was 0.01.

G7U A12U A14G G29U C37A: the self-cleavage amounted to 0.02. With A24U A26G G29U the figure was 1.36. As for C8U C10G C46A, the self-cleavage was 0.02. The value for G19C C37U A41C was 0.01; that for C31G G40A C46A was 0; that for G5A A6C U34G was 0.03. For the variant C10G G33A A39U, the self-cleavage was found to be 0. Regarding C3A A16U G29C, the self-cleavage was 0.21. In the case of U9G G17C C23U G40C, the self-cleavage stood at 0.03. Turning to U20C G21C G22U, the self-cleavage is 0.07. On to G2U C10G C13G G30U, for which the self-cleavage is 0.01.

With C8U C15U G30A G40U, the self-cleavage was determined as 0.1. With G7A U9C G22A G33U A41G the figure was 0.04; with A12U C13G A16U, 0.08; with A11U G30U U32A, 0.01. The value for C18A U20G U28C was 0.33; that for G2U A12C C13U A24U G29U was 0.04.

Turning to A25U G27U C37U U38A, the self-cleavage is 0.01. As to G5U A6C G27C, the self-cleavage came to 0.11. As to G7U C10U U20C C23G G36A, the self-cleavage was determined as 0.

As to G2C G5A A11C, the self-cleavage turned out to be 0.04. The value for U9C A12C C15G G27C A41U was 0; that for A4U C8A G21U A26C U28C G29U was 0.07. As for C3A G5U G40U, the self-cleavage amounted to 0.15.

With C13A G40A U43C, the self-cleavage amounted to 0.08.

Turning to C13G G29U G35C, the self-cleavage was found to be 0.42. Turning to G5U G19U G22C G44C, the self-cleavage was found to be 0.04.

On to U9A A26G U32A, for which the self-cleavage worked out at 0.13.
